Data as given in PubChem BioAssay AID1918996 (Molecular Pharmacology Branch, DTP, NCI, 2023).
Certain results were filed several times, with different values. They are shown here; other results are not. There may be further records. The values listed for one entry repeat one measurement (runs, samples, wells, individuals or studies). Counts like (3×) give the number of equal values in this list. Marks such as [2022-09] give the month of the run.

Tested on: 349418-098-R-PDC complex spheroid growth
Assay: Anticancer human tumor 349418-098-R-PDC patient-derived lung adenocarcinoma cell line growth inhibition [AhR]
Conditions: for IC50: combination with AhR antagonists, compound alone; for viability, T/C: stronger effect = lower value
Excerpt: Multicellular complex tumor spheroid response to aryl hydrocarbon receptor antagonists in combination with a variety of drugs and investigational agents in selected tumor cell lines
The current study was undertaken to assess response to aryl hydrocarbon receptor antagonists in combination with standard-of-care drugs and investigational agents in solid tumor complex spheroid models. Complex spheroids include a stromal component modeled by human endothelial cells (HUVEC) and fibroblasts modeled by human mesenchymal stem cells (MSCs). The concentration ranges selected for each drug and investigational agent were based upon clinically achievable concentrations if the clinical Cmax of the agent was known.
Compounds. The drugs and investigational agents: BAY 2416964 (NSC825713), GNF351 (NSC835774), CH-223191 (NSC835775), CPI-455 (NSC825282), aza-TdCyd (NSC777586), decitabine (NSC127716), belinostat (NSC758774), entinostat (NSC756642), pevonedistat (NSC761192), tazemetostat (NSC777109), talazoparib (NSC765396), olaparib (NSC753686), selinexor (NSC780203), nedisertib (M3814, NSC802822), bortezomib (NSC756655), venetoclax (NSC766270), doxorubicin (NSC123127), elimusertib (BAY189344, NSC800525), ceralasertib (AZD6738, NSC777638), TAK-243 (NSC785004), alisertib (NSC759677), etoposide (NSC141540), topotecan (NSC609699), eribulin (NSC707389), gemcitabine (NSC613327), carboplatin (NSC241240), cisplatin (NSC119875), and SN-38 (NSC673596) were obtained from the National Cancer Institute (NCI) Developmental Therapeutics Program Chemical Repository (32). The FDA-approved anticancer drug set is available from the Developmental Therapeutics Program at https://dtp.cancer.gov/organization/dscb/obtaining/available plates.htm. […] The stock solutions were prepared in dimethyl sulfoxide (DMSO, Sigma-Aldrich, St. Louis, MO, cat. D2650), except for the platinum compounds which were prepared in saline (Quality Biological, Gaithersburg, MD, cat. 114-055-101), at 800-fold the tested concentration and stored at -70 degrees C prior to their use. All drugs and investigational agents were tested over a range starting from a high concentration at or near the clinical Cmax and decreasing in half-log increments. If the clinical Cmax for an agent had not been determined, the highest concentration tested was 10 microM (Table 1).
Cell Culture. All cells were maintained in an incubator at 37 degrees C and 5% CO2 with 95% humidity. The PDC lines were cultured according to standard operating procedures established by the NCI PDMR (https://pdmr.cancer.gov). Briefly, all PDCs were thawed and cultured in Matrigel-coated flasks prepared with a working solution of 1X Ham's F-12 nutrient mix, without supplementation (Invitrogen, Waltham, MA, cat. 11765054), 100 U/mL penicillin-streptomycin (Invitrogen, cat. 15140122), and 2.5% Matrigel (Corning Inc., Corning, NY, cat. 354248) for the first three passages. All PDCs were cultured in complete DMEM/F-12 media containing advanced DMEM/F-12 (Invitrogen, cat. 12634028), 4.9% defined fetal bovine serum, heat inactivated (HyClone Laboratories Inc., Logan, UT, cat. SH30070.03HI), 389 ng/mL hydrocortisone (Sigma-Aldrich, cat. H4001), 9.7 ng/mL human EGF recombinant protein (Invitrogen, cat. PHG0313), 23.4 microg/mL adenine (Sigma-Aldrich, cat. A2786), 97.3 U/mL penicillin-streptomycin (Invitrogen, cat. 15140122), 1.9 mM L-glutamine (Invitrogen, cat. 25030081), and 9.7 microM Y-27632 dihydrochloride (Tocris Bioscience, Bristol, United Kingdom, cat. 1254). The PDCs were cultured in complete DMEM/F12 media without 10 microM Y-27632 dihydrochloride for at least two passages prior to the screen. The established cell lines NCI-H1341 and […] were cultured in DMEM/F-12, HEPES (Invitrogen, cat. 11330032), 5% defined fetal bovine serum (HyClone Laboratories Inc., cat. SH30070.03), ITS premix universal culture supplement [insulin (5 microg/mL), transferrin (5 microg/mL), and selenious acid (5 ng/mL)] […]
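Also: spheroids exposed to agents for seven days before luminescence viability read.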
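For viability, T/C in this document: spheroids also contain HUVEC endothelial cells and human MSC stroma.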

SMILES | IC50 (run of 07/12/2022) | viability, T/C (compound alone 0.1 µM) | viability, T/C (compound alone 0.316 µM) | viability, T/C (compound alone 1 µM) | viability, T/C (compound alone 3.16 µM) | viability, T/C (compound alone 10 µM) | IC50 (run of 07/18/2022) | IC50 (run of 07/26/2022)
CC(CO)NC(=O)c1cc(-c2ccc(Cl)cc2)nn(-c2cnn(C)c2)c1=O (stereo not given) | > 10 µM, 9.86 µM, 7.61 µM, 8.83 µM, 7.38 µM, 8.02 µM, 8.68 µM, 6.12 µM, 7.11 µM, 9.92 µM | 103 (2×), 93.2, 80.1, 98.1, 113, 73.9, 95.6, 93.9, 124, 114, 81.3, 87.5, 76.5, 73.8, 77, 82.2, 100 (2×), 89.7% | 102, 117, 88.6, 101 (2×), 90.5, 96.8, 87.9, 116, 115, 89.1, 83.3 (2×), 108, 91.1, 91.4, 100, 81.9, 105, 79.7, 84.3% | 77.6, 98.1, 82.8, 81.5, 84.1, 83.9, 82.5, 82.6, 99.9, 112, 77.5, 83.2, 90.1, 79.2, 89.2, 88.9, 67.7, 91.1, 72.3, 72.8, 85.5% | 60.9, 78.1, 92.3, 62, 66.1, 79.5, 77, 91.4, 86.6, 66.8, 63.5, 76.4, 73.7, 71, 67.6, 68.7, 66.9, 83.5, 71.5% | 69.2, 50, 61.4, 51.3, 65.5, 41.2, 60.8, 76.6, 53.6, 62.2, 48.4, 58.9 (2×), 41.6, 52.7, 42.9, 52, 44.3, 36.8% | – | –
Cc1cncc(-c2nc(NCCc3c[nH]c4ccccc34)c3ncn(C(C)C)c3n2)c1 | – | – | – | 86.3, 80.9, 87.8, 80, 85.8, 86.9, 87, 87.9, 76.1, 89.4, 85, 85.2 (2×), 82.5, 76.5, 80.8, 72.5 (2×), 40.5, 91.3, 86.8% | 22.3, 21.4, 19.8, 59.2, 13.9, 17, 14.6, 16.2, 16.8, 22.6, 26.3, 26.2, 22.5, 19.4, 19.5, 87, 13.5, 45.6, 25.1, 11.1% | – | 1.55 µM, 1.82 µM, 1.66 µM and 1.92 µM, 1.84 µM, 1.78 µM, 3.86 µM, 1.79 µM, 1.81 µM, 1.65 µM, 1.87 µM, 1.9 µM, 1.99 µM, 1.94 µM, 1.75 µM, 831 nM, 2.83 µM, 1.73 µM [2022-07] | –
Cc1ccccc1N=Nc1ccc(NC(=O)c2ccnn2C)c(C)c1 | – | 101, 110, 72.3, 84.8, 98, 84, 109, 113, 87.8, 79.7, 91.4, 115, 85.6, 96.1, 88.9, 90.7, 116, 68, 84.4, 96% | 99.7, 76.9, 61.4, 84.6 (2×), 91.9, 73.6, 59.9, 97.2, 98.8, 102, 87.1, 86.2, 92.7, 82.9, 85.6, 110, 94.4, 87.7, 92% | 103, 111, 86.8, 102, 85.5, 78.4, 65.7, 75.2, 71.4, 85, 88, 86, 84.3, 93.2, 91.3, 92.3, 75.3, 89.7, 76.3, 104% | 82.6, 74.9, 65, 87, 104, 83.5, 83.6, 67.8, 66.4, 106, 63.5, 80, 85.7, 86.1, 95.9, 74.8, 78.8, 93, 71.3, 61.2% | 76.2, 63.7, 52.5, 63.3, 69.1, 46.6, 60.6, 50.4 (2×), 52, 51.2, 44.4, 60, 67.9, 47.5, 62.5, 68.7, 80.7, 54.9, 71.3% | – | > 10 µM, 8.89 µM, 7.12 µM, 9.34 µM
